PubChem BioAssay AID485341 (National Center for Advancing Translational Sciences (NCATS), 2010)
Out of some 330,000 compounds screened, about 1,700 (0.52%) were called active. The shares of active, inactive and inconclusive entries below differ from those in the screen. The call rests on the fitted dose curve; in most records, active means well fitted inhibition curve with a large enough effect; inconclusive means small, poorly fitted or top-dose-only effect; inactive means no such curve, though single readings can be large or run the other way. A potency beside an inconclusive call is a rough fit, not a confirmed value.

target: Beta-lactamase (Escherichia coli (strain K12)) (UniProt P00811); assay: qHTS Inhibitors of AmpC Beta-Lactamase (assay without detergent); conditions: AmpC nitrocefin hydrolysis, absorbance 480 nm, 0.0001% Triton; activity change, negative = inhibition: at 57.1 µM (top of the series) unless noted; further: nearly all actives have a fitted effect of over 20% in size;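 on activity change, negative = inhibition: plate controls were no compound for no effect and no enzyme for full effect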
Chain of UniProt P00811 (P00811 whole entry, looked up): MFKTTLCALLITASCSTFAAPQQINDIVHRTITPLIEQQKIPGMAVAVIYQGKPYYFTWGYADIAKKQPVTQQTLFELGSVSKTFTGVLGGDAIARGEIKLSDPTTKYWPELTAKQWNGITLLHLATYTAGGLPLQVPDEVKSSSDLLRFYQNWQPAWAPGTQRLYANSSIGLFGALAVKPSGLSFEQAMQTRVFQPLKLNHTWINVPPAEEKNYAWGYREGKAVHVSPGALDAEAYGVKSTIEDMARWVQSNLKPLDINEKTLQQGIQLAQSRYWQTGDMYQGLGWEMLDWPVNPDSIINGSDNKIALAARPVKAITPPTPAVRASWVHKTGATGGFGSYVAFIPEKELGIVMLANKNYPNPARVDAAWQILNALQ
In short: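 AmpC (5.3 nM in the dispensed reagent) in 20 mM phosphate pH 7.0 with 0.01% (detergent screen) or 0.0001% Triton X-100 was preincubated with compounds for 15 min at room temperature. Nitrocefin was then added from an 800 uM solution, and hydrolysis was followed at 480 nm.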
Potency means the concentration at half of the fitted maximal effect; tags describe the fitted curve by direction and shape.

SMILES	activity change, negative = inhibition	Potency
CC(=O)c1ccccc1OCC(O)CN1CCN(C(c2ccccc2)c2ccccc2)CC1 (centres undefined)	inactive: 41.9%	–
CCC(=O)Nc1nc(C)c(-c2csc(Nc3cccc(O)c3)n2)s1	–	active: 15.8 µM
COC(=O)CSc1nc2sc3c(c2c(=O)n1-c1ccccc1)CCN(C)C3	inactive: 64.3%	–
COc1ccc(Br)cc1CNC(=O)c1ccc2c(c1)N(C)CCS2	–	inconclusive: 25.1 µM [inhibitor, single point]
Oc1ccc(-c2[nH]ncc2-c2ccc(Cl)cc2)c(O)c1	–	inconclusive: 20 µM [inhibitor, partial curve]
Cc1nc(CS(=O)(=O)c2ccc(Cl)cc2)cc(Sc2ccccc2Cl)n1	–	active: 3.55 µM
Cc1nc2ccc(NC(=O)NCc3ccco3)cc2s1	inactive: -37.2%	–
CC1CCc2sc(NC(=S)NC(=O)c3ccccc3)c(C#N)c2C1 (centres undefined)	–	inconclusive: 10 µM [inhibitor, partial curve, poor fit]
O=[N+]([O-])c1ccc(O)c(C=Nc2ccc3nc(-c4ccccc4)[nH]c3c2)c1	inactive: -43.3%	–
CCCCOc1ccc(C(=O)NNC(=S)NC(=O)CC)cc1	inactive: -33.2%	–
COc1ccc(NC(=S)Nc2cc(-c3ccccc3)[nH]n2)cc1Cl	–	inconclusive: 7.94 µM [inhibitor, full curve, poor fit]
COc1ccc(OC)c(C2CC(=O)N3CN(c4cccc(Cl)c4C)CSC3=C2C#N)c1 (centres undefined)	inactive: -53.6%	–
CNc1ccc(Br)cc(C(=O)/C=C/c2ccc(OC)cc2OC)c1=O	–	inconclusive: 31.6 µM [inhibitor, partial curve]
O=C(N/N=C/c1ccc(N2CCOCC2)cc1)c1ccccc1NS(=O)(=O)c1cccs1	–	inconclusive: 35.5 µM [inhibitor, partial curve]
Cc1ccc(OCc2cc(C(=O)N(C)CC3CCOCC3)no2)cc1C	inactive: 134%	–
O=S1(=O)N=C(N(Cc2cccs2)c2ccc(O)cc2)c2ccccc21	–	inconclusive: 20 µM [inhibitor, single point]
Cc1c(NC(=O)C2CCCN2S(=O)(=O)c2ccc(Cl)cc2)c(=O)n(-c2ccccc2)n1C (centres undefined)	inactive: -11.4%	–
CC1CCc2sc(C(=O)NNC(=S)NC3CC3)cc2C1 (centres undefined)	inactive: -29.4%	–
COc1ccccc1/C=C/C=N/NC(=O)c1ccc2nc[nH]c2c1	–	active: 20 µM
CC(C)c1ccc(NC(=O)NC(C)c2ccc3c(c2)OCO3)cc1 (centres undefined)	–	inconclusive: 10 µM [inhibitor, partial curve]
COc1ccc(NC(=S)NC(=O)/C=C/c2ccco2)cc1	–	active: 15.8 µM
Cc1ccc(C(=O)Nc2nc(=O)n(C(=O)CC(C)C)s2)cc1	inactive: -4.71%	–
COc1ccc(CCn2c(C)cc(C(=O)COC(=O)c3ccc(NC(=O)CC#N)cc3)c2C)cc1	–	active: 17.8 µM
CCCN(CCC)c1nc(Cl)nc(NCc2ccco2)n1	–	active: 0.158 µM
CCN(CC)C(=O)C1CCCN(C/C=C/c2ccccc2)C1 (centres undefined)	–	active: 0.282 µM

SMILES	activity change, negative = inhibition	Potency
COc1cc(NS(=O)(=O)c2cccc3nsnc23)cc(OC)c1	–	inconclusive: 31.6 µM [inhibitor, single point]
Cc1cccc(N2C(=O)NC(=O)/C(=C\c3cc(C)n(-c4sc5c(c4C#N)CCCC5)c3C)C2=O)c1C	–	active: 31.6 µM
COc1ccc(NS(=O)(=O)c2cccc(NC(=O)NCCCl)c2)cc1	–	inconclusive: 2.51 µM [inhibitor, partial curve]
Brc1cccc(-c2n[nH]c(-c3ccccc3)n2)c1	–	active: 8.91 µM
CCc1cc(/C(Cc2ccccn2)=N\Nc2ccccc2)c(O)cc1O	–	active: 25.1 µM
Cc1cccc(C(=O)Oc2ccc(/C=N/NC(=O)c3ccc(O)cc3)cc2)c1	–	active: 14.1 µM
CC(Cc1cccs1)NC(=O)Nc1cccc(Cl)c1 (centres undefined)	–	inconclusive: 10 µM [inhibitor, partial curve, poor fit]
CSc1nsc(NC(=O)CCNC(=O)c2ccc([N+](=O)[O-])cc2)n1	–	inconclusive: 39.8 µM [inhibitor, single point]
COc1ccc(OCCNc2c([N+](=O)[O-])c(=O)oc3ccccc23)cc1	–	active: 28.2 µM
COc1cccc(CN2c3ccc(Br)cc3C(=O)CS2(=O)=O)c1	–	inconclusive: 31.6 µM [inhibitor, single point]
COc1ccccc1CNc1nc2nc(C)c(Cl)c(=O)n2[nH]1	–	inconclusive: 5.62 µM [inhibitor, single point]
O=C(NC(=S)Nc1ccc(Cc2ccncc2)cc1)c1ccccc1F	inactive: 40.3%	–
O=C(CC1Sc2ccccc2NC1=O)OCc1cc(=O)oc2cc(O)ccc12 (centres undefined)	–	inconclusive: 8.91 µM [inhibitor, partial curve]
COc1ccc(CCNC(=O)c2sc3cc(C)ccc3c2Cl)cc1	–	inconclusive: 0.251 µM [inhibitor, full curve, poor fit]
O=C(CS(=O)(=O)c1ccc(F)cc1)N1CCN(c2ccccc2)CC1	–	inconclusive: 39.8 µM [inhibitor, single point]
COCCNC(=O)c1cc(-c2cccs2)on1	–	active: 6.31 µM
Cc1cccc(NC(=O)CNC(=O)COc2ccc(-c3ccc(C#N)cc3)cc2)c1C	–	active: 28.2 µM
COCc1nnc(NS(=O)(=O)c2ccccc2)s1	–	inconclusive: 7.08 µM [inhibitor, single point]
CCOC(=O)c1nn(-c2ccc(OC)cc2)c(=O)c2c(N)scc12	–	inconclusive: 3.55 µM [inhibitor, full curve, poor fit]
Cc1ccc(NC(=O)Nc2cc(S(=O)(=O)N(C)C)ccc2C)cc1	–	active: 25.1 µM
c1ccc2c(NCCc3c[nH]c4ccccc34)c3ccccc3nc2c1	–	inconclusive: 11.2 µM [inhibitor, partial curve]
N#CCC(=O)N/N=C/c1ccc(OS(=O)(=O)c2ccccc2)cc1	–	inconclusive: 0.141 µM [inhibitor, full curve, poor fit]
COc1cc(/C=N/NC(=O)c2ccc(F)cc2)ccc1OC(=O)c1ccco1	–	active: 10 µM
COCCCn1c(CCC(=O)O)ccc1-c1ccc(F)cc1	–	inconclusive: 0.631 µM [inhibitor, partial curve, poor fit]
